# Data taken from the BET-seq Pho4 binding data (Le et al. 2018).
# The list shows a part of the results. The energies were worked out here from pooled read counts, against the library average; single values are noisy.
# Biological target: T1, Pho4 (S. cerevisiae) (UniProt P07270)
# T1 sequence: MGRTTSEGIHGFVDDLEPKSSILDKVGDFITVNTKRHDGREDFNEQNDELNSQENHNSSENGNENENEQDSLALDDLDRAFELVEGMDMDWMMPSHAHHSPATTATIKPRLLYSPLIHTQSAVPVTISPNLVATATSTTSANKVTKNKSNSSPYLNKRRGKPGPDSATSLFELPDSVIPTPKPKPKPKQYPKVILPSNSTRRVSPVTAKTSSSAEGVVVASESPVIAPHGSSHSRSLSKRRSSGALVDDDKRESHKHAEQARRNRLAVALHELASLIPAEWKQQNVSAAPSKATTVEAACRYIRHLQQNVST
# Experiment: relative binding free energy (BET-seq); higher = weaker binding
# Settings: reference: library average
row,Sequence,relative binding free energy
1,AGGGTCACGTGATTCG,0.3 kcal/mol
2,ATTAACACGTGTTGTT,-0.04 kcal/mol
3,TTTTGCACGTGATAAG,0.09 kcal/mol
4,CGGGCCACGTGAGATT,0.46 kcal/mol
5,GTTCGCACGTGATATG,0.11 kcal/mol
6,CGTGGCACGTGGAGAA,0.05 kcal/mol
7,ATTAGCACGTGGGTCC,-0.07 kcal/mol
8,ATAATCACGTGTCGGG,0.14 kcal/mol
9,TTAAGCACGTGTATGC,0.05 kcal/mol
10,GTTATCACGTGGAGTG,0.3 kcal/mol
11,TTTGGCACGTGTCATT,-0.12 kcal/mol
12,ATATTCACGTGTCTAG,0.29 kcal/mol
13,AATAGCACGTGGGTCT,-0.11 kcal/mol
14,CGATGCACGTGTTGTA,-0.05 kcal/mol
15,AGTAGCACGTGCTATT,-0.09 kcal/mol
16,CATATCACGTGGTTGC,0.17 kcal/mol
17,AACTGCACGTGGAGGT,0.02 kcal/mol
18,AGGATCACGTGATGTA,0.16 kcal/mol
19,TTAGGCACGTGACGTG,-0.01 kcal/mol
20,GGTCGCACGTGTTTCG,0 kcal/mol
21,CGGCGCACGTGAGGGT,0.13 kcal/mol
22,AGTGACACGTGTAGAT,0.11 kcal/mol
23,TATATCACGTGGGGAT,0.07 kcal/mol
24,CGTTTCACGTGTAGTG,0.22 kcal/mol
25,TGTGTCACGTGCTCTT,-0.02 kcal/mol

row,Sequence,relative binding free energy
1,AGTGGCACGTGTCTGA,-0.12 kcal/mol
2,AGGGCCACGTGGGATG,-0.14 kcal/mol
3,TGGTTCACGTGGGCCT,0.17 kcal/mol
4,TAGGGCACGTGAGTAA,0.01 kcal/mol
5,GCATTCACGTGTTGGT,0.36 kcal/mol
6,AGTGGCACGTGCTATA,-0.16 kcal/mol
7,GGGAGCACGTGGGTAT,-0.18 kcal/mol
8,TTTAGCACGTGCGTGT,-0.17 kcal/mol
9,TGTAGCACGTGTGCGT,-0.04 kcal/mol
10,TAAGACACGTGGGTTT,-0.03 kcal/mol
11,TGGCGCACGTGATTTG,0.03 kcal/mol
12,ATGCGCACGTGAGGTG,0.05 kcal/mol
13,ATCCTCACGTGTTGGT,0.19 kcal/mol
14,TGGTACACGTGGCTTA,-0.02 kcal/mol
15,TTGTGCACGTGTTATC,-0.03 kcal/mol
16,CGTTGCACGTGCGGTA,-0.11 kcal/mol
17,TAGGCCACGTGCGTGG,-0.22 kcal/mol
18,GAGTCCACGTGGCGGT,0.08 kcal/mol
19,GAGGCCACGTGGTGGT,-0.09 kcal/mol
20,TTCGGCACGTGTAGAT,0.05 kcal/mol
21,TGATGCACGTGTTTTA,0.05 kcal/mol
22,GTGGGCACGTGTCAAA,0.04 kcal/mol
23,TAGGACACGTGGATCG,0.08 kcal/mol
24,CGCATCACGTGGAGGG,0.17 kcal/mol
25,GGGTGCACGTGGGTTT,-0.04 kcal/mol

row,Sequence,relative binding free energy
1,ACAGACACGTGGGGGA,-0.11 kcal/mol
2,CTATGCACGTGGGGGC,-0.2 kcal/mol
3,GTGGGCACGTGACATT,0 kcal/mol
4,TTGGTCACGTGGTCTT,0.07 kcal/mol
5,TATAACACGTGTTAGT,-0.08 kcal/mol
6,TTTTACACGTGGTTTG,0.12 kcal/mol
7,TTAAGCACGTGTATTG,-0.13 kcal/mol
8,CTTTTCACGTGTGAGG,0.3 kcal/mol
9,TGTGGCACGTGCATAT,-0.27 kcal/mol
10,TCAGTCACGTGTTCGG,0.08 kcal/mol
11,TAGAGCACGTGGAGGA,-0.2 kcal/mol
12,ATATGCACGTGAGGGA,0.14 kcal/mol
13,AATGACACGTGTTTTG,-0.1 kcal/mol
14,AGGCTCACGTGAGTTG,0.32 kcal/mol
15,TGTGACACGTGATCGG,0.08 kcal/mol
16,TGGCTCACGTGGCGGG,0.15 kcal/mol
17,TTATTCACGTGAATTA,0.29 kcal/mol
18,TAAAGCACGTGTTATA,0.05 kcal/mol
19,TATATCACGTGAAATG,0.25 kcal/mol
20,ATAATCACGTGTGGGA,0.24 kcal/mol
21,TTTTACACGTGGCTTA,-0.02 kcal/mol
22,TGGGACACGTGTGGAG,0.19 kcal/mol
23,TTGATCACGTGGTATT,0.08 kcal/mol
24,TAATGCACGTGTCATT,-0.08 kcal/mol
25,CAAGGCACGTGCGTGG,-0.32 kcal/mol

row,Sequence,relative binding free energy
1,AAGGGCACGTGTCTTT,-0.12 kcal/mol
2,TATATCACGTGTATTG,0.04 kcal/mol
3,TGCTTCACGTGTTAGA,0.41 kcal/mol
4,TTTAACACGTGATAGG,0.19 kcal/mol
5,TAGGTCACGTGTCGAG,0.17 kcal/mol
6,CTGTGCACGTGTGTAT,0.01 kcal/mol
7,CGGGGCACGTGGGTTG,-0.19 kcal/mol
8,ATGGCCACGTGTGTGT,-0.08 kcal/mol
9,TAGTACACGTGGGGGT,-0.1 kcal/mol
10,TGATGCACGTGAGAAG,0.32 kcal/mol
11,TTGATCACGTGAACGT,0.24 kcal/mol
12,TGGGACACGTGTTTGC,-0.13 kcal/mol
13,AGTGGCACGTGAGTAC,0.13 kcal/mol
14,GTTGACACGTGATATA,0.12 kcal/mol
15,TCGTTCACGTGGTGCA,0.22 kcal/mol
16,AAGTTCACGTGTCGTA,0.23 kcal/mol
17,TATTTCACGTGTCGGA,0.33 kcal/mol
18,GTGTGCACGTGAATGA,0.31 kcal/mol
19,TTGGTCACGTGAACAG,0.4 kcal/mol
20,GTGATCACGTGTTAGC,0.2 kcal/mol
21,AATTGCACGTGTGAGT,0.06 kcal/mol
22,GAGAGCACGTGATTTG,0.32 kcal/mol
23,AGTGTCACGTGAAAGT,0.1 kcal/mol
24,GATTTCACGTGTGTAT,0.32 kcal/mol
25,TTACTCACGTGTATTG,0.15 kcal/mol

row,Sequence,relative binding free energy
1,AGGCTCACGTGGGGCG,0.07 kcal/mol
2,ATTGGCACGTGGGATA,-0.14 kcal/mol
3,AGTGTCACGTGTCGAG,0.11 kcal/mol
4,GGATTCACGTGATTGT,0.42 kcal/mol
5,TAGGTCACGTGACTTG,0.32 kcal/mol
6,TGGGGCACGTGATTTA,0 kcal/mol
7,GGCTTCACGTGTAATG,0.31 kcal/mol
8,ATTGTCACGTGGAGGA,0.22 kcal/mol
9,AGTGGCACGTGCGGCG,-0.18 kcal/mol
10,AGGTGCACGTGCTGGG,-0.05 kcal/mol
11,TTTAACACGTGGCGGA,-0.08 kcal/mol
12,CTGTTCACGTGTGGAT,0.29 kcal/mol
13,TGACTCACGTGTTGAG,0.28 kcal/mol
14,AGTGCCACGTGGTAGT,-0.18 kcal/mol
15,CGAAGCACGTGGTGAT,0.01 kcal/mol
16,GTTGCCACGTGGTTTG,-0.14 kcal/mol
17,GACATCACGTGGGGTG,-0.13 kcal/mol
18,GTGATCACGTGAAGTT,0.39 kcal/mol
19,GGGCACACGTGCTTGT,0.11 kcal/mol
20,TGGGTCACGTGTCGAA,0.07 kcal/mol
21,TGGCTCACGTGGAGGT,0.18 kcal/mol
22,TTTGACACGTGGTAAC,0.18 kcal/mol
23,ATGAGCACGTGGGGGA,-0.25 kcal/mol
24,TGCCGCACGTGATTGG,0.05 kcal/mol
25,CAAGGCACGTGGTTGT,-0.18 kcal/mol

row,Sequence,relative binding free energy
1,TAAGGCACGTGTTGGA,-0.04 kcal/mol
2,TGTCTCACGTGGGCTT,0.1 kcal/mol
3,GTTAACACGTGCAGAT,0.24 kcal/mol
4,TTTTACACGTGTTGTT,0.07 kcal/mol
5,TATGTCACGTGCCTTG,0.03 kcal/mol
6,TTTAGCACGTGGAAAG,-0.08 kcal/mol
7,AATTACACGTGGGGGT,-0.01 kcal/mol
8,AGCGTCACGTGTATTT,0.08 kcal/mol
9,TTTGTCACGTGAAGCG,0.37 kcal/mol
10,TGATACACGTGGTGCT,-0.12 kcal/mol
11,TTCGTCACGTGTAATT,0.26 kcal/mol
12,AGCTACACGTGTGGGT,0.12 kcal/mol
13,AGCGGCACGTGTCAGG,-0.16 kcal/mol
14,CGTTACACGTGTGTAG,0.04 kcal/mol
15,AGGTCCACGTGGCTGG,-0.06 kcal/mol
16,GGGTGCACGTGCTTGA,-0.05 kcal/mol
17,ATGGGCACGTGGTGGT,-0.19 kcal/mol
18,TGTGACACGTGCATGG,-0.14 kcal/mol
19,GTTGGCACGTGAAATA,0.22 kcal/mol
20,TGAGTCACGTGGACGG,0.15 kcal/mol
21,TGTTCCACGTGTCGGG,0.07 kcal/mol
